In PubChem BioAssay (Tox21):
Several values for one entry are separate records, joined by “and”; a condition that tells them apart may be missing. Identical values can stand only once. This list was built around the results that the source calls inconclusive (neither active nor inactive); the mix of calls is not that of the screen. For part of these data: A potency beside an inconclusive call is a rough fit, not a confirmed value. The source holds several records for some structures; these can differ, active in one and inactive in another. Activity calls are given as the source filed them. Calls come from the whole dose curve; as a rule, active = well fitted curve in the direction sought with a large enough effect in the repeat runs; inconclusive = weak or mixed curves; inactive = no such curve, though single readings can be large; an effect the other way counts as inactive or inconclusive.

Experiments:
[1] = Caspase-3/7 induction in CHO-K1 cells by small molecules, qHTS cell viability counter screen (AID 1346979); note: nearly all actives have a fitted effect of over 35% in size; note: potency is the fitted concentration of half-maximal effect; for activity change, negative = cytotoxicity: % is set by controls: 0 for no effect and ±100 for the full control effect
Summary of the method: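 Wild-type CHO-K1 cells (1,500/well) treated with compound after 5 h plating; after 16 h at 37C, viability read as CellTiter-Fluor fluorescence following 1 h reagent incubation, in the same wells as the caspase read.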

[2] = target: Cytochrome P450 1A2 (Homo sapiens) (UniProt P05177); assay: Cytochrome P450 Family 1 Subfamily A Member 2 (CYP1A2) small molecule antagonists: luciferase reporter qHTS assay (AID 1671199); note: nearly all actives have a fitted effect of over 50% in size; note: potency is the fitted concentration of half-maximal effect
Summary of the method: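 Steps: enzyme-substrate mix dispensed; test compounds and furafylline control pinned in; 10 min room temperature; NADPH regeneration solution added, 1 h; reaction stopped with luciferin detection reagent; luminescence read after 20 min.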

[3] = target: Cytochrome P450 2C19 (Homo sapiens) (UniProt P33261); assay: Cytochrome P450 Family 2 Subfamily C Member 19 (CYP2C19) small molecule antagonists: luciferase reporter qHTS assay (AID 1671197); note: nearly all actives have a fitted effect of over 65% in size; note: potency is the fitted concentration of half-maximal effect
Summary of the method: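 Luminescent readout of CYP2C19 activity: luciferin product detected 20 min after adding detection reagent. Before that, compound and enzyme-substrate mix preincubated 10 min at room temperature; NADPH-regenerating system started a 1 h, 37C reaction. Ketoconazole as positive control.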

[4] = target: Cytochrome P450 2C9 (Homo sapiens) (UniProt P11712); assay: Cytochrome P450 Family 2 Subfamily C Member 9 (CYP2C9) small molecule antagonists: luciferase reporter qHTS assay (AID 1671198); note: nearly all actives have a fitted effect of over 50% in size; note: potency is the fitted concentration of half-maximal effect
Summary of the method: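 Enzyme-substrate mix preincubated with compound 10 min at room temperature; reaction started with NADPH regeneration solution, 1 h 37C. Luminescent luciferin product read after 20 min detection reagent.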

[5] = target: Voltage-gated inwardly rectifying potassium channel KCNH2 (Homo sapiens) (UniProt Q12809); assay: Human Ether-a-go-go-Related Gene (hERG) channel small molecule antagonists: fluorescence cell-based qHTS assay (AID 1671200); note: nearly all actives have a fitted effect of over 50% in size; note: potency is the fitted concentration of half-maximal effect
Summary of the method: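 hERG-U2OS cells plated overnight at 37 C, loaded with FluxOR II dye 1 h at RT in dark; after 10 min, thallium stimulus added. Fluorescence (480/540 nm) read kinetically for 2 min at 1 s intervals.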

[6] = target: Cytochrome P450 3A4 (Homo sapiens) (UniProt P08684); assay: Cytochrome P450 Family 3 Subfamily A Member 4 (CYP3A4) small molecule antagonists: luciferase reporter qHTS assay (AID 1671201); note: potency is the fitted concentration of half-maximal effect; nearly all actives have a fitted effect of over 50% in size
Summary of the method: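 P450-Glo CYP3A4 luminescent assay: compounds preincubated 10 min at room temperature with enzyme and proluciferin substrate, NADPH regeneration added, 1 h room-temperature reaction, stopped with luciferin detection reagent; luminescence read after 20 min. Ketoconazole positive control.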

[7] = Caspase-3/7 induction in HepG2 cells by small molecules, qHTS cell viability counter screen (AID 1346981); note: nearly all actives have a fitted effect of over 30% in size; note: potency is the fitted concentration of half-maximal effect; for activity change, negative = cytotoxicity: series mostly up to about 92 µM; % is set by controls: 0 for no effect and ±100 for the full control effect
Summary of the method: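 In this quantitative HTS counter screen, compounds delivered in DMSO were left on unmodified HepG2 cells for 16 hr at 37 C. Viability was then determined fluorometrically with CellTiter-Fluor, in parallel with caspase-3/7 induction in the same wells.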

[8] = target: Nuclear receptor subfamily 1 group I member 2 (Homo sapiens) (UniProt O75469); assay: Human pregnane X receptor (PXR) small molecule agonists, qHTS assay (AID 1346982); note: nearly all actives have a fitted effect of over 35% in size; note: potency is the fitted concentration of half-maximal effect
Summary of the method: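 Reporter HepG2 cells expressing PXR-Luc are cultured in charcoal-stripped FBS (5%), treated with compounds for 24 hr at 37 C, and assayed by ONE-Glo luminescence after 30 min at room temperature.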

[9] = Caspase-3/7 induction in CHO-K1 cells by small molecules, qHTS assay (AID 1346980); note: % is set by controls: 0 for no effect and ±100 for the full control effect; nearly all actives have a fitted effect of over 15% in size
Summary of the method: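 Luminescent Caspase-Glo 3/7 read (30min, room temperature) quantified apoptosis induction. Cells were wild-type CHO-K1, treated with compound for 17hr at 37 C and 5% CO2.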

[10] = target: Cytochrome P450 2D6 (Homo sapiens) (UniProt P10635); assay: Cytochrome P450 Family 2 Subfamily D Member 6 (CYP2D6) small molecule antagonists: luciferase reporter qHTS assay (AID 1671196)
Summary of the method: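 Test chemicals meet CYP2D6 plus proluciferin substrate (10 min, RT); NADPH regenerating solution then drives turnover for 1 h. Detection reagent halts the reaction; luminescence measured after 20 min.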
Tags give direction and shape of the fitted curve.

Sequence of UniProt P33261 (P33261 whole entry, looked up): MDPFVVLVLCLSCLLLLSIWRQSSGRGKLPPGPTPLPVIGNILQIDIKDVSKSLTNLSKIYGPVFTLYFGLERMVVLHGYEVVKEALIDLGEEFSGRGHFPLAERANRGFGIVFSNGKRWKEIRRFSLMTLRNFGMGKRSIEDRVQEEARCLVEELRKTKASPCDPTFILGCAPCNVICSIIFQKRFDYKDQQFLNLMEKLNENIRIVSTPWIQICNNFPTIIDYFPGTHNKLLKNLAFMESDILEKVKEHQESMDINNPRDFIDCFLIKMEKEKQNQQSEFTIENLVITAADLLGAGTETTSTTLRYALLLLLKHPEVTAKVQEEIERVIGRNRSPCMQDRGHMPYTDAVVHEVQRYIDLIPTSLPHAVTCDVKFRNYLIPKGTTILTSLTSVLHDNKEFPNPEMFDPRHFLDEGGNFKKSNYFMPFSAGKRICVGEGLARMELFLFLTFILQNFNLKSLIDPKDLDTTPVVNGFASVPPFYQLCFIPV
Sequence of UniProt P05177 (P05177 whole entry, looked up): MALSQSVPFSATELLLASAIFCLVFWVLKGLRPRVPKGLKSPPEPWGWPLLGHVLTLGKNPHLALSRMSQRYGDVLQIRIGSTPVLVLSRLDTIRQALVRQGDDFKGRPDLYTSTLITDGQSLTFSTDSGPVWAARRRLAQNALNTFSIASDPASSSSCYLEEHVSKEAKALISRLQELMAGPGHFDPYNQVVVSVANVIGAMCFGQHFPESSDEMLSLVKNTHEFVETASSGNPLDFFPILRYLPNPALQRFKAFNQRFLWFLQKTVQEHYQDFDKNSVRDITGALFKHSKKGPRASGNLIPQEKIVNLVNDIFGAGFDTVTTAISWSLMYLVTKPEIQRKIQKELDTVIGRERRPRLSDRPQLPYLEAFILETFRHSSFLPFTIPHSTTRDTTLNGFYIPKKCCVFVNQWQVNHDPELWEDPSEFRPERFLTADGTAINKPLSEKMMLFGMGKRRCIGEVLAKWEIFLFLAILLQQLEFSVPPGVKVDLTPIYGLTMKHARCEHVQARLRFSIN
Sequence of UniProt O75469 (O75469 whole entry, looked up): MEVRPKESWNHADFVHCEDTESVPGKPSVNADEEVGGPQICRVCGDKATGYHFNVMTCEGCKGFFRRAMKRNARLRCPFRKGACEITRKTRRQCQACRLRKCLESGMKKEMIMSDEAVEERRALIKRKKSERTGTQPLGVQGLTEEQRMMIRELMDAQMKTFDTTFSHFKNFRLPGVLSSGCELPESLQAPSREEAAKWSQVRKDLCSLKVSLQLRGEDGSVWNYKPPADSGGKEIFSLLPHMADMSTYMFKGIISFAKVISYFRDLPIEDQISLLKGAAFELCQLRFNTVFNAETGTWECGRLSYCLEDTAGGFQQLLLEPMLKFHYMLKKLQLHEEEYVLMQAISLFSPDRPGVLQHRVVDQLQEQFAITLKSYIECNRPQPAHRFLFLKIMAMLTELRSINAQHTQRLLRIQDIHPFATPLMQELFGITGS
Sequence of UniProt Q12809 (Q12809 whole entry, looked up): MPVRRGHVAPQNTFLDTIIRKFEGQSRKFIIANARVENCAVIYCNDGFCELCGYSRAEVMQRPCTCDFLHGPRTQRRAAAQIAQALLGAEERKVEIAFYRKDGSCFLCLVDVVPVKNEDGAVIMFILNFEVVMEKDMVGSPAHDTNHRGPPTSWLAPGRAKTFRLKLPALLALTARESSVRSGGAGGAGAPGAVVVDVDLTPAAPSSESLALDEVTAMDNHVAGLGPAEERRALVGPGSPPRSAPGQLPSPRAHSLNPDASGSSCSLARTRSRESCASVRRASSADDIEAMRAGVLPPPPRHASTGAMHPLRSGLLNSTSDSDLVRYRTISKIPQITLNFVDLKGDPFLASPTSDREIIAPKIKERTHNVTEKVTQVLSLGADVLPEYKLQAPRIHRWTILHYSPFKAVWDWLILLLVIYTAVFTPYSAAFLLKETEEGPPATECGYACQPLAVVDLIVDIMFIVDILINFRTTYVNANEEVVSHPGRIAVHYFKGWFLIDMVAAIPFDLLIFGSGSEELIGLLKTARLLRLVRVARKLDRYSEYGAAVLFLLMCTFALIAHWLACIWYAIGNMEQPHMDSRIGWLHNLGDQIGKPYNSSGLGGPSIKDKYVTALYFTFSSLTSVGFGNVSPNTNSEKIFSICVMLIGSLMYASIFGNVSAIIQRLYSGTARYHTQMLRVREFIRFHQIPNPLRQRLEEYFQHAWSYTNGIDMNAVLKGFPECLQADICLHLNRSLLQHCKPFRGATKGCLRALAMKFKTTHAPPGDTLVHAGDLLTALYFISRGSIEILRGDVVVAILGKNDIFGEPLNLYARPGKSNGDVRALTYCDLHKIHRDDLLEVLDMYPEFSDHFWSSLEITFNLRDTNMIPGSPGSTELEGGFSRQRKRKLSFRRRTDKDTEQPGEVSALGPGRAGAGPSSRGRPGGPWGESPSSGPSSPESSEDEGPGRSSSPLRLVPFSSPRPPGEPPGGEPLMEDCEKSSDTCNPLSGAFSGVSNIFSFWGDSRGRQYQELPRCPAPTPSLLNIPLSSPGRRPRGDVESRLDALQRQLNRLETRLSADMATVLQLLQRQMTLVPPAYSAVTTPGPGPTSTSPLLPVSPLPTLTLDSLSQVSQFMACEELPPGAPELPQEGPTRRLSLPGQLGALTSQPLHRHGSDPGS
Sequence of UniProt P11712 (P11712 whole entry, looked up): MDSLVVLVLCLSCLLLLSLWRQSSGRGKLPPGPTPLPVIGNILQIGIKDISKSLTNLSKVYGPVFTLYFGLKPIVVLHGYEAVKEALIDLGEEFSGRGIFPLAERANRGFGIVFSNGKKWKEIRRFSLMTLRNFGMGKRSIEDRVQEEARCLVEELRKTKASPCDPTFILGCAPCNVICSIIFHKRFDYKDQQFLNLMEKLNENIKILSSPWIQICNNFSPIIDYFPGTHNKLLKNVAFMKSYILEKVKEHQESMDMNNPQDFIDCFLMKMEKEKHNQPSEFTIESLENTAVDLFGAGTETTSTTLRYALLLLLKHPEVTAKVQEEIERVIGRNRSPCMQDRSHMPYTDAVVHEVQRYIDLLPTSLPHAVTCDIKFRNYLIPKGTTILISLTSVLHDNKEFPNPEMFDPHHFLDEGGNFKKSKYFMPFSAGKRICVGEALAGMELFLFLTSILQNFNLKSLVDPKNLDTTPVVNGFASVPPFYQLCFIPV
Sequence of UniProt P08684 (P08684 whole entry, looked up): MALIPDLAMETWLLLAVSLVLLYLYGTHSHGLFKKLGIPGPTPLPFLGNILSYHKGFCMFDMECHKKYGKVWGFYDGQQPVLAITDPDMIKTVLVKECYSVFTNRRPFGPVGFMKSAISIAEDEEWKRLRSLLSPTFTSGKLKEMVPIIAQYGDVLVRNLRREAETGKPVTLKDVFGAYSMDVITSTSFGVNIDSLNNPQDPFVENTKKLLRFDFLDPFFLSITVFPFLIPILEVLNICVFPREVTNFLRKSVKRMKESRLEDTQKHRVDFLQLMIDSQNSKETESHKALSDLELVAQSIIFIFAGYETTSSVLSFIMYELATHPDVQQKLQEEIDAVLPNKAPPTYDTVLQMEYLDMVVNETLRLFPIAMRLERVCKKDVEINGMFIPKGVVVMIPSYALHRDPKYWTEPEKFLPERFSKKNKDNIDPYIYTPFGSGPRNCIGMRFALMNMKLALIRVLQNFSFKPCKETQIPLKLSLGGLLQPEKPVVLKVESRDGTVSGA
Sequence of UniProt P10635 (P10635 whole entry, looked up): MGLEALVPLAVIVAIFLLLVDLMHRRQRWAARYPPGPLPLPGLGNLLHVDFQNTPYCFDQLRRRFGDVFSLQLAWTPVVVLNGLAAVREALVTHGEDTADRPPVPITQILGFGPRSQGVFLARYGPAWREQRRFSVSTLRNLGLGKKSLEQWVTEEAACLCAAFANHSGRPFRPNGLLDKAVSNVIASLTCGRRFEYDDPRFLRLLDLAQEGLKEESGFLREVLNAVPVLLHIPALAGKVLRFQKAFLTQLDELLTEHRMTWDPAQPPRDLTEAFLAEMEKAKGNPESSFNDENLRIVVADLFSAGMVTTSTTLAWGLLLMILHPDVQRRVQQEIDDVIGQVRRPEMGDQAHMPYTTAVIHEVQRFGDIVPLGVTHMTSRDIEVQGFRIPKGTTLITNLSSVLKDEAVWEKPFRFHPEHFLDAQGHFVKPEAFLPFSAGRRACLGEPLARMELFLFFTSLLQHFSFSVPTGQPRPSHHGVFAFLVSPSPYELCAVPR

With `O=C(O)CCc1nc2ccccc2[nH]1` the Potency [1] was “inactive” and the Potency [2] was “inactive”.
With `CN(C(=O)CCCOc1ccc2[nH]c(=O)ccc2c1)C1CCCCC1` the Potency [1] was inconclusive: 33.5 µM [cytotoxic, single point], the Potency [3] was inconclusive: 43.6 µM [inhibitor, single point] and the Potency [4] was inconclusive: 13.8 µM [inhibitor, partial curve].
With `Clc1cccc(Cl)n1` the Potency [1] was inconclusive: 68.6 µM [cytotoxic, single point], the Potency [3] was “inactive” and the Potency [4] was “inactive”.
For `Cc1ccccc1C(=O)Nc1ccc(C(=O)N2CCCC(O)c3cc(Cl)ccc32)c(C)c1` (stereo unspecified), the Potency [1] was inconclusive: 33.5 µM [cytotoxic], the Potency [3] was “inactive” and the Potency [5] was “inactive”.
In the case of `C=C(C)C(N)=O`, the Potency [1] is reported as inconclusive: 69.1 µM [rising, partial curve] and the Potency [2] is reported as inconclusive: 63.8 µM [inhibitor, partial curve].
In the case of `CCCCCCCC/C=C\CCCCCCCC(=O)OCCCC`, the activity change, negative = cytotoxicity [1] is reported as inactive: 3.24% [at 19 µM] and the Potency [4] is reported as inconclusive: 6.46 µM [inhibitor, partial curve, poor fit].
With `CCCCCCCCCCCBr` the Potency [1] was inconclusive: 1.21 µM [cytotoxic, single point], the Potency [4] was “inactive” and the Potency [2] was “inactive”.
With `Nc1nc(CC(=O)O)cs1` the Potency [1] was “inactive”, the Potency [3] was inconclusive: 79.9 µM [inhibitor, single point] and the Potency [2] was “inactive”. The Potency [5] was inconclusive: 49.1 µM [inhibitor, partial curve] and the Potency [6] was inconclusive: 56.6 µM [inhibitor, partial curve].
In the case of `CCN1C=CN(C)C1C` (stereo unspecified), the Potency [1] is reported as inconclusive: 77.3 µM [rising, partial curve, poor fit] and the Potency [4] is reported as “inactive”.
With `CNC(=O)c1c(I)c(NC(C)=O)c(I)c(C(=O)O)c1I` the Potency [1] was inconclusive: 33.5 µM [rising, partial curve, poor fit], the Potency [4] was “inactive” and the Potency [2] was inconclusive: 34.7 µM [inhibitor, partial curve, poor fit].
With `CC(=O)[C@H]1CC[C@H]2[C@@H]3C[C@H](C)C4=CC(=O)CC[C@]4(C)[C@H]3[C@@H](O)C[C@]12C` the Potency [1] was inconclusive: 37.6 µM [cytotoxic, single point], the Potency [3] was inconclusive: 3.89 µM [inhibitor, full curve, poor fit] and the Potency [2] was “inactive”. The Potency [6] was inconclusive: 13.8 µM [inhibitor, partial curve].
In the case of `CC(C)CCCCCCOC(=O)CCCCC(=O)OCCCCCCC(C)C`, the Potency [1] is reported as “inactive”, the Potency [4] is reported as inconclusive: 39.9 µM [inhibitor, partial curve, poor fit] and the Potency [2] is reported as active: 35.6 µM.
For `O=C(CCNNC(=O)c1ccncc1)NCc1ccccc1`, the Potency [1] was inconclusive: 29.8 µM [rising, single point] and the Potency [2] was inconclusive: 27.5 µM [inhibitor, partial curve, poor fit].
With `CC(C)C/C=C(\C=O)c1ccccc1` the Potency [1] was inconclusive: 61.1 µM [cytotoxic, partial curve], the Potency [3] was active: 17.8 µM and the Potency [4] was active: 35.6 µM. The Potency [5] was inconclusive: 49 µM [inhibitor, partial curve, poor fit].
With `CCCCCCCCCCCCCCCC(=O)OC(C)C` the Potency [1] was inconclusive: 6.68 µM [rising, full curve], the Potency [3] was “inactive” and the Potency [2] was inconclusive: 30.9 µM [inhibitor, partial curve, poor fit].
For `CCNC(=O)NCCCOc1cccc(CN2CCCCC2)c1`, the Potency [1] was inconclusive: 37.6 µM [rising, single point] and the Potency [4] was inconclusive: 17.4 µM [inhibitor, full curve, poor fit].
For `CCC(CC)Nc1ccc(C)c(C)c1`, the Potency [1] was “inactive” and the Potency [4] was inconclusive: 35.6 µM [inhibitor, partial curve, poor fit].
In the case of `Nc1ccc(S(=O)(=O)c2ccc(N)cc2)cc1`, the Potency [1] is reported as inconclusive: 33.5 µM [rising, partial curve, poor fit] and the Potency [2] is reported as inconclusive: 79.7 µM [inhibitor] and inconclusive: 79.6 µM [inhibitor, partial curve, poor fit].
In the case of `S=C(S)NCCNC(=S)S`, the Potency [7] is reported as “inactive”, the Potency [8] is reported as “inactive” and the Potency [3] is reported as active: 31.2 µM.
With `CCOC(=O)c1ccc(O)cc1` the Potency [9] was “inactive”, the Potency [7] was inconclusive: 27.3 µM [cytotoxic, partial curve, poor fit] and the Potency [8] was inconclusive: 54.5 µM [activator, partial curve, poor fit] and inactive.
With `CCOC(=O)C1=NN(c2ccccc2)C(=O)C1` the Potency [7] was “inactive”, the Potency [8] was inconclusive: 27.3 µM [activator, partial curve, poor fit] and the Potency [2] was inconclusive: 35.6 µM [inhibitor, partial curve].
With `OCCCCl` the Potency [7] was “inactive”.
With `C=CC(=O)NCOCCCC` the Potency [7] was inconclusive: 24.3 µM [rising, partial curve], the Potency [8] was inconclusive: 79.3 µM [activator] and the Potency [10] was active: 16.4 µM. The Potency [3] was inconclusive: 89.4 µM [inhibitor, single point], the Potency [4] was inconclusive: 116 µM [inhibitor, partial curve, poor fit] and the Potency [2] was inconclusive: 51.8 µM [inhibitor, partial curve].
